The results in this text go back to paper PMC11241627, “Cysteine Oxidation in Human Galectin-1 Occurs Sequentially via a Folded Intermediate to a Fully Oxidized Unfolded Form” (International Journal of Molecular Sciences, 2024).

The data set concerns the molecule itself. The data set can be described thus: PFG NMR diffusion; pulsed field gradient NMR diffusion coefficients of Gal-1 during CuSO4 oxidation; 30 °C; ~25 μM Gal-1 in 20 mM potassium phosphate buffer pH 7.0; self-association (dimer).

B1: human galectin-1 (Gal-1), native, fully reduced (natural protein)
chain: not shown
notes: galectin-1 (Gal-1), human; six cysteines printed as C2, C16, C42, C60, C88, C130; Samples for HSQC were uniformly 15N- or 13C/15N-labelled; also called native Gal-1; N state
As to B1, the “stoichiometry N” value came out at 2.
